# Measurements reported in PubChem BioAssay AID485281 (National Center for Advancing Translational Sciences (NCATS), 2010).
# In all, about 350,000 compounds went through this assay and about 260 (0.074%) were called active. The inconclusive results got no clear call from the source; some entries with a clear call stand among them for comparison. The call rests on the fitted dose curve; in most records, active means well fitted inhibition curve with a large enough effect; inconclusive means small, poorly fitted or top-dose-only effect; inactive means no such curve, though single readings can be large or run the other way. Potencies beside an inconclusive call are fits to weak or partial responses and may not hold up.
# Target: Ferritin light chain (Equus caballus) (UniProt P02791)
# Test: qHTS Assay for Identification of Novel General Anesthetics; further: nearly all actives have a fitted effect of over 20% in size
# Details: apoferritin/1-aminoanthracene competitive binding, fluorescence; series mostly up to 77.5 µM
# Outline: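 In PBS, apoferritin at 10 uM is loaded with 1-AMA from a 50% saturated solution. After 10 min of compound exposure at ambient temperature, reduced 535 nm fluorescence indicates probe displacement.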
# Potency means the concentration at half of the fitted maximal effect; tags describe the fitted curve by direction and shape.
# Sequence of UniProt P02791 (P02791 whole entry, looked up): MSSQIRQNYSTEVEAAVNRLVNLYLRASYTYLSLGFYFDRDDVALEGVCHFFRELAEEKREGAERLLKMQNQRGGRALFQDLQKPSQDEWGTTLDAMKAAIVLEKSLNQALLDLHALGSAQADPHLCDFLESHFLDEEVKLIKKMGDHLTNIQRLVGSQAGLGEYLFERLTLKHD
row,SMILES,Potency
1,Cc1ccc(C(C#N)c2ccc3c(C(F)(F)F)cc(C(F)(F)F)nc3n2)cc1 (stereo not drawn),"inconclusive: 6.31 µM [inhibitor, partial curve]"
2,Cn1ccc(=Nc2ccc(NC(=O)c3ccc(N=c4ccn(C)c5ccc([N+](=O)[O-])cc45)cc3)cc2)cc1,"inconclusive: 12.6 µM [inhibitor, full curve, poor fit]"
3,COc1ccc(CCNCc2ccc(OCc3ccc(Cl)nc3)c(OC)c2)cc1OC,"inconclusive: 31.6 µM [inhibitor, partial curve]"
4,c1ccc(CSc2nnc(-c3ccco3)o2)cc1,"inconclusive: 39.8 µM [inhibitor, partial curve]"
5,Cc1cc(C(=O)OCC(=O)Nc2ccc(F)c(F)c2)c(C)o1,"inconclusive: 35.5 µM [inhibitor, partial curve, poor fit]"
6,COc1ccc(/C=N/NC(=O)CN2CCCC2)cc1,inactive
7,O=C(/C=C/c1cccc([N+](=O)[O-])c1)NCCSc1ccccc1,"inconclusive: 15.8 µM [inhibitor, partial curve]"
8,COc1ccc(NC(=O)c2ccc(-c3nc(CSc4ccccc4)c(C)o3)cc2)c(OC)c1,inactive
9,CC(C)(C)c1ccc(OC(=O)Nc2ccc(O)c(C(=O)O)c2)cc1,"inconclusive: 35.5 µM [inhibitor, partial curve]"
10,COc1ccc(/C=C2/SC(=S)N(CCCC(=O)N3CCN(C)CC3)C2=O)cc1,"inconclusive: 22.4 µM [inhibitor, partial curve]"
11,O=C(NC1CCCCCCC1)c1ccc(S(=O)(=O)N2CCCC2)cc1,"inconclusive: 25.1 µM [inhibitor, partial curve]"
12,COc1cc(/C=N/Nc2ccccc2C(F)(F)F)ccc1O,"inconclusive: 39.8 µM [inhibitor, single point]"
13,CCOc1ccc(NC(=O)Cn2cc(C(=O)c3ccccc3)c(=O)c3cc(OC)ccc32)cc1,"inconclusive: 5.62 µM [inhibitor, full curve, poor fit]"
14,O=C(OCc1nc2ccccc2s1)c1ccccc1O,"inconclusive: 35.5 µM [inhibitor, partial curve]"
15,CCOC(=O)c1ccc(NC(=O)c2cc3ccccc3o2)cc1,"inconclusive: 35.5 µM [inhibitor, partial curve]"
16,O=C(CSc1nnnn1-c1ccc(O)cc1)Nc1ccc(N2CCOCC2)c(Cl)c1,"inconclusive: 25.1 µM [inhibitor, partial curve]"
17,O=C(CCNc1cc(Cl)cc(Cl)c1)c1ccco1,"inconclusive: 35.5 µM [inhibitor, partial curve]"
18,Cc1cc(C(=O)CN2C(=O)NC(Cc3c[nH]c4ccccc34)C2=O)c(C)n1C (stereo not drawn),"inconclusive: 14.1 µM [inhibitor, partial curve]"
19,CCOC(=O)C1(Cc2ccc(OC)cc2)CCN(C(=O)c2ccc3[nH]ccc3c2)CC1,inactive
20,COc1ccc(C(=O)c2no[n+]([O-])c2C(=O)c2ccc(OC)cc2)cc1,"inconclusive: 35.5 µM [inhibitor, partial curve]"
21,COc1ccc(Cn2nnc(C(=O)Nc3ccc(F)cc3)c2N)cc1,"inconclusive: 3.16 µM [inhibitor, full curve]"
22,O=C(c1ccc(Br)s1)N1CCN(Cc2ccc3c(c2)OCO3)CC1,inactive

row,SMILES,Potency
1,CC12CCC=CC1C(c1cccc([N+](=O)[O-])c1)N(Cc1ccccc1)C2=O (stereo not drawn),"inconclusive: 31.6 µM [inhibitor, partial curve]"
2,COc1ccccc1C/C(N)=N/OC(=O)c1ccc(C)c([N+](=O)[O-])c1,"inconclusive: 39.8 µM [inhibitor, partial curve]"
3,Cc1ccc(C(=O)N/C(=C\c2ccco2)C(=O)NCCc2c[nH]c3ccccc23)cc1,"inconclusive: 22.4 µM [inhibitor, partial curve]"
4,COc1ccc(-n2c(-c3ccc(Br)cc3)c[n+]3c2CCCCC3)cc1,inactive
5,O=C(C1CC1)N1CCN=C1SCc1ccccc1Cl,"inconclusive: 31.6 µM [inhibitor, single point]"
6,O=C(NCCCc1ccccc1)c1ccc2c(c1)sc1nc(-c3ccc(F)cc3)cn12,"inconclusive: 50.1 µM [inhibitor, single point]"
7,Cc1noc(C)c1C(c1ccccc1)S(=O)(=O)c1ccccc1 (stereo not drawn),inactive
8,CC1CC(=O)c2cnc(Nc3cccc(C(F)(F)F)c3)nc2C1 (stereo not drawn),"inconclusive: 4.47 µM [inhibitor, full curve, poor fit]"
9,CCCCNc1nc(C)nc2c1nc(-c1ccccc1)n2CC1CCN(C)CC1,inactive
10,O=C(CCn1ccnc1)Nc1cc(Cl)ccc1O,"inconclusive: 56.2 µM [inhibitor, single point]"
11,Fc1ccccc1Cc1nnc2n1N=C(c1ccc(Cl)cc1)CS2,"inconclusive: 3.16 µM [inhibitor, full curve, poor fit]"
12,Cc1c(C#N)c2ccccc2n1CC(=O)NCCc1c[nH]c2ccccc12,"inconclusive: 31.6 µM [inhibitor, partial curve]"
13,CC1=C(C(=O)OC(C)C)C(c2cccs2)N2C(=O)C(C)SC2=N1 (stereo not drawn),"inconclusive: 44.7 µM [inhibitor, single point]"
14,Cn1c2ccc(F)cc2c2ncn(Cc3ccco3)c(=O)c21,inactive
15,O=C(Nc1cccc(-n2cnnn2)c1)c1ccccc1Br,inactive
16,CC(C)CN(CC(C)C)CC(O)COc1ccccc1Br (stereo not drawn),inactive
17,O=C(CSCc1ccc([N+](=O)[O-])cc1)NCCSCc1ccccc1,"inconclusive: 25.1 µM [inhibitor, partial curve]"
18,COC(=O)CC1COc2ccccc2N1C(=O)c1ccc(Cl)cc1 (stereo not drawn),"inconclusive: 28.2 µM [inhibitor, partial curve]"
19,Cc1ccc(NC(=O)c2sc3nc[nH]c(=O)c3c2C)cc1C,"inconclusive: 50.1 µM [inhibitor, single point]"
20,CC(C)c1ccc(OCC(=O)N2CCCCCC2)c(Br)c1,"inconclusive: 3.98 µM [inhibitor, single point]"
21,CCOc1ccc(C(=O)Nc2cc(-c3nc4ccccc4[nH]3)ccc2Cl)cc1[N+](=O)[O-],inactive
